Data: the RNAGym collection of RNA variant scans (doi:10.1073/pnas.2313332121)
This sample is rich in variants without activity.

B1: TPR 5TU (parent)
chain: GGAUCUUCUCGAUCUAACAAAAAAGACAAAUCUGCCACAAAGCUUGAGAGCAUCUUCGGAUGCAGAGGCGGCAGCCUUCGGUGGCGCGAUAGCGCCAACGUUCUCAACUAUGACACGCAAAACGCGUGCUCCGUUGAAUGGAGUUUAUCAUG

Variants of: B1
Assay: polymerase ribozyme fitness, log enrichment relative to wild type (log ratio); higher = more active; in vitro selection for triplet polymerase activity
How it was run: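 Frozen incubation at −7 °C formed the core of a single, triplicate in vitro selection round applied to PCR-built, transcribed mutant libraries of each subunit of a heterodimeric triplet polymerase ribozyme. Extended constructs were gel-excised, captured with streptavidin beads and amplified by RT-PCR, and input and output libraries were Illumina-sequenced with a filter of ≥10 input reads and ≥1 read per output. Fitness is the logarithm of genotype enrichment relative to wild-type enrichment, with inverse-variance-weighted replicate averaging, and the logarithm is base 2.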

Polymerase ribozyme fitness (log ratio), ≤ -4.2:
GGAUCUUCUCGAUCUAACAAAAAAGACAUAUCUGCCACAAAGCUUGAGAGCAUCUUCGGAUGCAGAGGCGGCAACCUUCGGUGGCUCGAUAGCGCAAACGUUCUCCACUAUGACACGCAAAACGCGUGCUCCGUUGAAUGGAGUUUAUCAUG [A29U G74A G86U C96A A106C]
GGAUCUUCUCGAUCUAACAAAAAAGACAUAUCUGCCACAAAGCUUGAGAGCAUCUUCGGAUGCAGAGGCGGCAGCCUUCCGUGGCGCGAUAGCGACAACGUGCUUAACUAUGACACGCAAAACGCGUGCUCCGUUGAAUGGAGUUUAUCAUG [A29U G80C C95A U102G C105U]
GGAUCUUCUCGAUCUAACAAAAAAGACAUAUCUGCCACAAAGCUUGAGAGCAUCUUCGGAUGCAGAGGCGGCAGCCUUCGCUGGCGCGAUAGCGCCAACGUUCUCAACUAUGACACGGAAAACGCGUGCUCCGUUGAAUGGAGUUUAUCAUG [A29U G81C C118G]
GGAUCUUCUCGAUCUAACAAAAAAGACAUAUCUGCCACAAAGCUUGAGAGCAUCUUCGGAUGCAGAGGCGGCAGCCUUCGUUGGCGCGAUACCGCCAACGUUCUCAACUAUGACAGGCAAAACGCGUGCUCCGUUGAAUAGAGUUUACCAUG [A29U G81U G92C C116G G140A U148C]
GGAUCUUCUCGAUCUAACAAAAAAGACAUAUCUGCCACAAAGCUUGAGAGCAUCUUCGGAUGCAGAGGCGGCAGCCUUCGGUAGUGCGAUAGCGCCAACGUUCUUAACUAUGACACGCAAAACGCGUGCUCCGUUGAAUGGAGUUUAUCAUG [A29U G83A C85U C105U]
GGAUCUUCUCGAUCUAACAAAAAAGACAUAUCUGCCACAAAGCUUGAGAGCAUCUUCGGAUGCAGAGGCGGCAGCCUUCGGUUGCGCGGUAGCGCCAACGUUCUCAACUAUGACAAGCAAAACGCGUGCUCCGUUGAAUGGAGUUUAUCGUG [A29U G83U A89G C116A A150G]
GGAUCUUCUCGAUCUAACAAAAAAGACAUAUCUGCCACAAAGCUUGAGAGCAUCUUCGGAUGCAGAGGCGGCAGCCUUCGGUGGCGCCAUAGCGCCAACGUUCUCAACUAUGACACGCAAAACGCGUGCUCUGUUGAAUGGAGUUUAUCAUG [A29U G88C C132U]
GGAUCUUCUCGAUCUAACAAAAAAGACAUAUCUGCCACAAAGCUUGAGAGCAUCUUCGGAUGCAGAGGCGGCAGCCUUCGGUGGCGCGAUAGCGCCAACGUUCUCAACUAUGACACGCAAAACACGUGCUCCGUUGAAUGCAGUUUAUCAUG [A29U G124A G141C]
GGAUCUUCUCGAUCUAACAAAAAAGACAUAUCUGCCACAAAGCUUGAGAGCAUCUUCGGAUGCAGAGGCGGCAGCCUUCGGUGGCGCGAUAGCGCCAACGUUCUCAACUAUGACACGCAAAACGCGUGCUCCCUUGAAUGGAGUUUAUCAUG [A29U G133C]
GGAUCUUCUCGAUCUAACAAAAAAGACAUAUCUGCCACAAAGCAUGAGCGCAUCUUUGGAUGCAGAGGCGGCAGCCUUCGGUGGCGCUAUAGCGCCAACGUUCUCAACUAUGACACGCAAAACGCGUGCUCCGUUGAAUGGAGUUUAUCAUG [A29U U44A A49C C57U G88U]
GGAUCUUCUCGAUCUAACAAAAAAGACAUAUCUGCCACAAAGCAUGAAAGCAUCUUCGGAUGCAGAGGCGGCAGCCUUCGGUGACGCGAUAGCGCCAACGUUCUCAACUAUGACACGCAAAACGCGUGCUCCGUUGAAUGGAGUUUAUCAUG [A29U U44A G48A G84A]
GGAUCUUCUCGAUCUAACAAAAAAGACAUAUCUGCCACAAAGCCAGAGAGCAUCUUAGGAUGCGGAGGCGGCAGCAUUCGGUGGCGCGAUAGCGACAACGUUCUCAACUAUGACACGCAAAACGCGUGCUCCGUUGAAUGGAGUUUAUCCUG [A29U U44C U45A C57A A64G C76A C95A A150C]
GGAUCUUCUCGAUCUAACAAAAAAGACAUAUCUGCCACAAAGCUAGACAGCAUCUUCGGAUGCAGAGGCGGCAGCCUUCGGUGGAGCGAUAGCGCCAACGUUCUCAACUAGGAGACGCAAAACGCGUGCUCCGUUGAAUGGAGUUUAUCAUG [A29U U45A G48C C85A U111G C114G]
GGAUCUUCUCGAUCUAACAAAAAAGACAUAUCUGCCACAAAGCUUGAGAGCAACUACGGAUGCUGAGGCGGCAGCCCUCGGUGGCGCGAUAGCGCCAGCGUUGUCAACUAUGACACGCAAAACGCGUGCUCCGUUGAAUGGAGUUUACCAUG [A29U U53A U56A A64U U77C A98G C103G U148C]
GGAUCUUCUCGAUCUAACAAAAAAGACAUAUCUGCCACAAAGCUUGAGAGCAUCAUCGGGUGCAGAGGCGGCAGCCUUCGGUGGCACGAUAGCGCCAACGUUCUCAACUAUGACACGCAAAACGCGUGCCCCGUUGAAUGGAGUUUAUCAUG [A29U U55A A60G G86A U130C]
GGAUCUUCUCGAUCUAACAAAAAAGACAUAUCUGCCACAAAGCUUGAGAGCAUCGUCGGAUGCAGAGUCGGGAGCCUUCGGUGUCGUGAUAGCGCCAACGUUCUCAACUAUGACAAGCAAAACGCGUGCUUCGUUGAAUGGAGUUUAUCAUG [A29U U55G G68U C72G G84U C87U C116A C131U]
GGAUCUUCUCGAUCUAACAAAAAAGACAUAUCUGCCACAAAGCUUGAGAGCAUCUACGGGUGCAGAGGCGGCAGCCUUCGAUGGCGAGAUAGCGCCAACGUUCUCAACUAUGACACGCAAAACGCGUGCUCCGUUGAAUGGAGUUUAUCAUG [A29U U56A A60G G81A C87A]
GGAUCUUCUCGAUCUAACAAAAAAGACAUAUCUGCCACAAAGCUUGAGAGCAUCUACCGAUGCAGAGUCGGCAGCCUUCGGUGGCCCGAUAGCGGCAACGUUCUCAACUAUGACACGCAAAACGCGUGCUCCGUUGAAUGGAGUUUAUCAUG [A29U U56A G58C G68U G86C C95G]
GGAUCUUCUCGAUCUAACAAAAAAGACAUAUCUGCCACAAAGCUUGAGAGCAUCUUCGGAAGCAGAGGCGGCAGCCUUCGGUGGCGCGAUAGCGCCAACGUUCUCAACUAUGACACGCAAAACGCGUGCUCCGUUGAAUGGAGUUUAUCAUG [A29U U61A]
GGAUCUUCUCGAUCUAACAAAAAAGACAUAUCUGCCACAAAGCUUGAGAGCAUCUUCGGAAGCAGAGGCGGCAGCCUUCGGUGGCGCGAUCGCGCAAACGUUCUCAACUAUGACACGCAAAACGCGUCCUCCGUUGAAUGGAGUUUAUCAUG [A29U U61A A91C C96A G128C]
GGAUCUUCUCGAUCUAACAAAAAAGACAUAUCUGCCACAAAGCUUGAGAGCAUCUUCGGAUGCAGAGGCGGCAGCCUUCGGUGGCGCGAUAGCGCCAACGUUCUCAACGAUGACACGCAAAACGCGUGCUCCGUUGAAUGGAGUUUAUGAUG [A29U U109G C149G]
GGAUCUUCUCGAUCUAACAAAAAAGACAACUCUGCCCCAAAGCUUGAGCGCCUCUUGGGAUGCAGAGGCGGCAGCCUUCGGUAGCGCGAUAGCGCCAACGUUCUCAACUAUGACUCGCAAAACGCGUGCUCCGUUGAAUGGACUUUAUCAUG [A30C A37C A49C A52C C57G G83A A115U G143C]
GGAUCUUCUCGAUCUAACAAAAAAGACAACUCUGCCACUAAGCUUGAGAGCAUCUUCUGGUGCAGAAGCGGCAGCCUUCGGUGGCGCGAUAGCGCCAACGUUCUCAACUAUGACACGCAAAACGCGUGCUCCGUUGAAUGGGGUUUAUCAAG [A30C A39U G58U A60G G67A A142G U151A]
GGAUCUUCUCGAUCUAACAAAAAAGACAACUCUGCCACAAAGCUUGCGCGCAUCUUCGGGUGCAGAGGCGGCAGCCUUCGUUGGCGCGAUAGCGGCAACGUUCUCAACUAUGACACGCUAAACGCGUGCUCCGUUGAAUGGAGUUUAUCCUG [A30C A47C A49C A60G G81U C95G A119U A150C]
GGAUCUUCUCGAUCUAACAAAAAAGACAACUCUGCCACAAAGCUUGGGAGCUUCUUCGGAUGCAGAGGCGGCAGCCUUCGGUGGCGCGAUAGCACCAACGUUCUAAACUAUGACACGCAAAACGCGUGCUCCCUUGAAUAGGGUUUAUCAUG [A30C A47G A52U G94A C105A G133C G140A A142G]
GGAUCUUCUCGAUCUAACAAAAAAGACAACUCUGCCACAAAGCUUGAGCGCAUCUUCGGAUGCAGAGGCGGCAGCCUUCGGUGGCGCGAUAGCGCCAACGUUCUCAACUAUGACACGCAAAACGCGUGCUCCGUUGAAUGGAGUUUAUCAUG [A30C A49C]
GGAUCUUCUCGAUCUAACAAAAAAGACAACUCUGCCACAAAGCUUGAGAGCCUCUUCGGAUGCAGAGGCGGCAGCUUUCGGUGGCGUGAUAGCGCCAACGUUCUCAACUAUGACACGCAAAACGCGUGCUCCGUUGAAUGGAGUUUAUCAUG [A30C A52C C76U C87U]
GGAUCUUCUCGAUCUAACAAAAAAGACAACUCUGCCACAAAGCUUGAGAGCAUCUUCGGAUGCUAAGGCAGCAGCCUUCGGUGUCGCGAUCGCGCCAACGUUUUCAACUAUGACACGCAAAACGCGUGCUCCGUUCAAUGGAGUUUAUGAUG [A30C A64U G65A G70A G84U A91C C103U G136C C149G]
GGAUCUUCUCGAUCUAACAAAAAAGACAACUCUGCCACAAAGCUUGAGAGCAUCUUCGGAUGCAGGGGCGGCAGCCUUCGGUGGCGCGAUAGCGCUAACGUUCUCAACUAUGACACGCAAAACGCGUGCUCCGUUGAAUUGCGUUUAUCAUG [A30C A66G C96U G140U A142C]
GGAUCUUCUCGAUCUAACAAAAAAGACAACUCUGCCACAAAGCUUGAGAGCAUCUUCGGAUGCAGGGGCGGCAGCCGUCGGUGGCGCGAUAGCGACAACGUUCUCAACUAUGACACGCAAAACGCGUGCUCCGUUGAAUGGAGUUUAUCAUG [A30C A66G U77G C95A]
GGAUCUUCUCGAUCUAACAAAAAAGACAACUCUGCCACAAAGCUUGAGAGCAUCUUCGGAUGCAGAGGCGGCAGCCUUCGGUGGCGCGAUAGCGCCAACGUUCUCAACUAUGACACGCAAAACGCGUGCUCCGUUGAAUGGCGCUUAUCAUG [A30C A142C U144C]
GGAUCUUCUCGAUCUAACAAAAAAGACAACUUUGCCAGAAAGCUUGAGGGCAUCUUCGGAUGCAGAGGCGGCAGCCUUCGGUGGCGCGAUAGCGCCAAGGUUCUCAACUAUGACACGCAAAACGGGUGCUCCGUUGAAUGGAGUUUAUCAUG [A30C C32U C38G A49G C99G C125G]
GGAUCUUCUCGAUCUAACAAAAAAGACAACUCUGUCACAAAGCUUGAGAUCAUCUUCGGAUGCAUAGGCGGCAGCCUUCGGUGGCGCGAUAGCACCAACGUUCUCAACUAUGACACGCAAAACGCGUGCUCCGUUGAAUGGAGUUGAUCAUG [A30C C35U G50U G65U G94A U146G]
GGAUCUUCUCGAUCUAACAAAAAAGACAACUCUGCUACAAAGCUUGAGAGCAUCUUGGGAUGCAGAGGCGGCAGCAUUCGGUGGCGUGAUAGCGCCAACGUUCUCAACUAUGACACGCAAAACGCGUGCUCCGUUGAAUGGAGUAUAUCAUG [A30C C36U C57G C76A C87U U145A]
GGAUCUUCUCGAUCUAACAAAAAAGACAACUCUGCCACAAAGUUUGAGCGCAUCUUCGGAUGCAGAGGCGGCAGCCUUCGGUGGGGCGAUAGCGCCAACGUUCUCAAGUAUGACACGCAAAACGCGUGCUCCGUUGAAUGGAGUUUAUCAUG [A30C C43U A49C C85G C108G]
GGAUCUUCUCGAUCUAACAAAAAAGACAACUCUGCCACAAAGCUUGAGAGCAUCUUCGGAUGCAGAGGCGGCAGCCUUAGGUGGCGCGAUAGCGCUAACGUUCUCAACUAUGACACGCAAAACGCGUGCUCCGUUGAAUGGAGUUUAUCAUG [A30C C79A C96U]
GGAUCUUCUCGAUCUAACAAAAAAGACAACUCUGCCACAAAGCUUGAGAGCAUCUUCGGAUGCAGAGGCGGCAGCCUUACGUGGCGCGAUAGCGCUAACGUUCUCAACUAUGACACGUAAAACGCGUGCUCCGUUGAAUGGAGUUUAUCAUG [A30C C79A G80C C96U C118U]
GGAUCUUCUCGAUCUAACAAAAAAGACAACUCUGCCACAAAGCUUGAGAGCAUCUUCGGAUGCAGAGGCGGCAGCCUUGGGUGGUGCGAUAGCGCCAACGUUCUCUACUAUGACACGCAAAACGCGUGCUCCGUUGAAUGGAGUUUAUCAUG [A30C C79G C85U A106U]
